# Numbering of substitutions follows the chain as printed; changes in the protein carry UniProt numbers. This is one part of the list.
# B1: CGACAAA (DNA:RNA)
# RNA: GGGAGACCGGAAUUCAGAUUGUCCCGACAAAUUAAAUCCCGUCGUAGCCACCA
# DNA 1: CAATCTGAATTCCGGTCTCCC
# DNA 2: TGGTGGCTACGACGGGATT
# B2: GUCCUUA (DNA:RNA)
# RNA: B1 RNA with C25G, G26U, A27C, A29U, A30U
# DNA 1: CAATCTGAATTCCGGTCTCCC
# DNA 2: TGGTGGCTACGACGGGATT
# B3: UCGAGUC (DNA:RNA)
# RNA: GGGAGACCGGAAUUCAGAUUGUCCUCGAGUCUUAAAUCCCGUCGUAGCCACCA
# DNA 1: CAATCTGAATTCCGGTCTCCC
# DNA 2: TGGTGGCTACGACGGGATT
# B4: UGAACCC (DNA:RNA)
# RNA: B3 RNA with C26G, G27A, G29C, U30C
# DNA 1: CAATCTGAATTCCGGTCTCCC
# DNA 2: TGGTGGCTACGACGGGATT
# B5: ACAAGCU (DNA:RNA)
# RNA: B3 RNA with U25A, G27A, U30C, C31U
# DNA 1: CAATCTGAATTCCGGTCTCCC
# DNA 2: TGGTGGCTACGACGGGATT
# B6: UCCGCAG (DNA:RNA)
# RNA: B3 RNA with G27C, A28G, G29C, U30A, C31G
# DNA 1: CAATCTGAATTCCGGTCTCCC
# DNA 2: TGGTGGCTACGACGGGATT
# B7: UCUGCCC (DNA:RNA)
# RNA: B3 RNA with G27U, A28G, G29C, U30C
# DNA 1: CAATCTGAATTCCGGTCTCCC
# DNA 2: TGGTGGCTACGACGGGATT
# B8: GCAGAUU (DNA:RNA)
# RNA: B1 RNA with C25G, G26C, C28G, A30U, A31U
# DNA 1: CAATCTGAATTCCGGTCTCCC
# DNA 2: TGGTGGCTACGACGGGATT
# B9: CAAGAAG (DNA:RNA)
# RNA: B1 RNA with G26A, C28G, A31G
# DNA 1: CAATCTGAATTCCGGTCTCCC
# DNA 2: TGGTGGCTACGACGGGATT
# B10: CCGUCGG (DNA:RNA)
# RNA: B3 RNA with U25C, A28U, G29C, U30G, C31G
# DNA 1: CAATCTGAATTCCGGTCTCCC
# DNA 2: TGGTGGCTACGACGGGATT
# B11: GCAAUGG (DNA:RNA)
# RNA: B3 RNA with U25G, G27A, G29U, U30G, C31G
# DNA 1: CAATCTGAATTCCGGTCTCCC
# DNA 2: TGGTGGCTACGACGGGATT
# B12: GAUCACC (DNA:RNA)
# RNA: B1 RNA with C25G, G26A, A27U, A30C, A31C
# DNA 1: CAATCTGAATTCCGGTCTCCC
# DNA 2: TGGTGGCTACGACGGGATT
# B13: GACAUCA (DNA:RNA)
# RNA: B1 RNA with C25G, G26A, A27C, C28A, A29U, A30C
# DNA 1: CAATCTGAATTCCGGTCTCCC
# DNA 2: TGGTGGCTACGACGGGATT
# B14: CGUAAGG (DNA:RNA)
# RNA: B1 RNA with A27U, C28A, A30G, A31G
# DNA 1: CAATCTGAATTCCGGTCTCCC
# DNA 2: TGGTGGCTACGACGGGATT
# B15: AAGAAGA (DNA:RNA)
# RNA: B1 RNA with C25A, G26A, A27G, C28A, A30G
# DNA 1: CAATCTGAATTCCGGTCTCCC
# DNA 2: TGGTGGCTACGACGGGATT
# B16: CAGAUGG (DNA:RNA)
# RNA: B3 RNA with U25C, C26A, G29U, U30G, C31G
# DNA 1: CAATCTGAATTCCGGTCTCCC
# DNA 2: TGGTGGCTACGACGGGATT
# B17: CAUCCAG (DNA:RNA)
# RNA: B1 RNA with G26A, A27U, A29C, A31G
# DNA 1: CAATCTGAATTCCGGTCTCCC
# DNA 2: TGGTGGCTACGACGGGATT
# B18: UGAAAUU (DNA:RNA)
# RNA: B1 RNA with C25U, C28A, A30U, A31U
# DNA 1: CAATCTGAATTCCGGTCTCCC
# DNA 2: TGGTGGCTACGACGGGATT
# B19: ACGGUUC (DNA:RNA)
# RNA: B3 RNA with U25A, A28G, G29U
# DNA 1: CAATCTGAATTCCGGTCTCCC
# DNA 2: TGGTGGCTACGACGGGATT
# B20: ACGGCAA (DNA:RNA)
# RNA: B1 RNA with C25A, G26C, A27G, C28G, A29C
# DNA 1: CAATCTGAATTCCGGTCTCCC
# DNA 2: TGGTGGCTACGACGGGATT
# B21: AAGAACC (DNA:RNA)
# RNA: B3 RNA with U25A, C26A, G29A, U30C
# DNA 1: CAATCTGAATTCCGGTCTCCC
# DNA 2: TGGTGGCTACGACGGGATT
# B22: CGCCAUU (DNA:RNA)
# RNA: B1 RNA with A27C, A30U, A31U
# DNA 1: CAATCTGAATTCCGGTCTCCC
# DNA 2: TGGTGGCTACGACGGGATT
# B23: ACCCCGA (DNA:RNA)
# RNA: B1 RNA with C25A, G26C, A27C, A29C, A30G
# DNA 1: CAATCTGAATTCCGGTCTCCC
# DNA 2: TGGTGGCTACGACGGGATT
# B24: CAAGAUG (DNA:RNA)
# RNA: B1 RNA with G26A, C28G, A30U, A31G
# DNA 1: CAATCTGAATTCCGGTCTCCC
# DNA 2: TGGTGGCTACGACGGGATT
# B25: UAAUAAU (DNA:RNA)
# RNA: B1 RNA with C25U, G26A, C28U, A31U
# DNA 1: CAATCTGAATTCCGGTCTCCC
# DNA 2: TGGTGGCTACGACGGGATT
# B26: GUCAUCU (DNA:RNA)
# RNA: B3 RNA with U25G, C26U, G27C, G29U, U30C, C31U
# DNA 1: CAATCTGAATTCCGGTCTCCC
# DNA 2: TGGTGGCTACGACGGGATT
# B27: GUUACCA (DNA:RNA)
# RNA: B1 RNA with C25G, G26U, A27U, C28A, A29C, A30C
# DNA 1: CAATCTGAATTCCGGTCTCCC
# DNA 2: TGGTGGCTACGACGGGATT
# B28: CAUGCUA (DNA:RNA)
# RNA: B1 RNA with G26A, A27U, C28G, A29C, A30U
# DNA 1: CAATCTGAATTCCGGTCTCCC
# DNA 2: TGGTGGCTACGACGGGATT
# B29: GGAAUAA (DNA:RNA)
# RNA: B1 RNA with C25G, C28A, A29U
# DNA 1: CAATCTGAATTCCGGTCTCCC
# DNA 2: TGGTGGCTACGACGGGATT
# B30: CCAGAAC (DNA:RNA)
# RNA: B1 RNA with G26C, C28G, A31C
# DNA 1: CAATCTGAATTCCGGTCTCCC
# DNA 2: TGGTGGCTACGACGGGATT
# B31: GUUACAA (DNA:RNA)
# RNA: B1 RNA with C25G, G26U, A27U, C28A, A29C
# DNA 1: CAATCTGAATTCCGGTCTCCC
# DNA 2: TGGTGGCTACGACGGGATT
# Molecular target: T1, RBFOX1 RRM (Homo sapiens, UniProt Q9NWB1 109-208)
# T1 sequence: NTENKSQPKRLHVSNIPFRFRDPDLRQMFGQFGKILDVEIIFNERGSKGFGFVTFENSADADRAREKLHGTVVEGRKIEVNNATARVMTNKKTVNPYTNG
# Assay: EMSA; HiTS-Eq, 1 nM pool, 10 min; buffer printed only for the single-RNA assays: 10 mM Tris pH 7.5, 150 mM NaCl, 3.4 mM EDTA, 0.001% NP-40, 30 C
# Settings: tags: His6 N-terminal (pET28a); label: 5' 32P
# Summary of the method: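 Relative association constants, normalised to the cognate motif, were derived by comparing read counts of each RNA species with those of the control reaction. The RNA sequenced was the free fraction, separated by 8% native PAGE after a 10 min equilibration in 50 µL of 1 nM 5′-radiolabelled RNA (7 randomized nucleotides) with increasing concentrations of purified wild-type or mutant RbFox RRM.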
row,Binder,binding signal
1,B1,0.00428 KA relative to UGCAUGU
2,B2,0.00586 KA relative to UGCAUGU
3,B3,0.0142 KA relative to UGCAUGU
4,B4,0.00441 KA relative to UGCAUGU
5,B5,0.0027 KA relative to UGCAUGU
6,B6,0.0128 KA relative to UGCAUGU
7,B7,0.0116 KA relative to UGCAUGU
8,B8,0.00839 KA relative to UGCAUGU
9,B9,0.00743 KA relative to UGCAUGU
10,B10,0.0118 KA relative to UGCAUGU
11,B11,0.0146 KA relative to UGCAUGU
12,B12,0.00724 KA relative to UGCAUGU
13,B13,0.00555 KA relative to UGCAUGU
14,B14,0.00625 KA relative to UGCAUGU
15,B15,0.00545 KA relative to UGCAUGU
16,B16,0.01 KA relative to UGCAUGU

row,Binder,binding signal
1,B17,0.00084 KA relative to UGCAUGU
2,B18,0.00973 KA relative to UGCAUGU
3,B19,0.0146 KA relative to UGCAUGU
4,B20,0.00895 KA relative to UGCAUGU
5,B21,0.00442 KA relative to UGCAUGU
6,B22,0.00624 KA relative to UGCAUGU
7,B23,0.00179 KA relative to UGCAUGU
8,B24,0.00651 KA relative to UGCAUGU
9,B25,0.00384 KA relative to UGCAUGU
10,B26,0.00775 KA relative to UGCAUGU
11,B27,0.00649 KA relative to UGCAUGU
12,B28,0.00212 KA relative to UGCAUGU
13,B29,0.00248 KA relative to UGCAUGU
14,B30,0.000363 KA relative to UGCAUGU
15,B31,0.00535 KA relative to UGCAUGU

# Reference: PMC9911399, “Two distinct binding modes provide the RNA-binding protein RbFox with extraordinary sequence specificity”
